According to the supplement of paper PMC12217912:
This is one part of the list. The full chains were built here from the parent and the listed change. Values near 0.05 are background.

B1: TEV protease; numbered along this chain (parent)
chain: MGESLFKGPRDYNPISSSICHLTNESDGHTTSLYGIGFGPFIITNKHLFRRNNGTLVVQSLHGVFKVKDTTTLQQHLVDGRDMIIIRMPKDFPPFPQKLKFREPQREERICLVTTNFQTKSMSSMVSDTSCTFPSGDGIFWKHWIQTKDGQCGSPLVSTRDGFIVGIHSASNFTNTNNYFTSVPKNFMELLTNQEAQQWVSGWRLNADSVLWGGHKVFMVKPEEPFQPVKEATQL

Variants of: B1
Experiment: raw area under fraction-flipped curve 0-4 h after induction (AUC4h, not background-subtracted), DNA-recorder readout of cleavage of the substrate (dimensionless); higher = more cleavage of the substrate by the protease variant
Details: temperature: 34 °C; time window: 0-4 h after rhamnose induction
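Note: Bxb1 expression induced with 0.2% (w/v) L-rhamnose at OD600 near 0.5, cultures sampled hourly, flipped fraction per protease–substrate barcode pair counted by paired-end Illumina sequencing.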

| Variant | area with substrate ENCYFQS | area with substrate ENDYFQS | area with substrate ENEYFQS | area with substrate ENFYFQS | area with substrate ENGYFQS | area with substrate ENKYFQS | area with substrate ENQYFQS | area with substrate ENTYFQS | area with substrate ENVYFQS | area with substrate ENHYFQS |
| --- | --- | --- | --- | --- | --- | --- | --- | --- | --- | --- |
| MGESLFKGPRDYNPISSSICHLTNESDGHTTSLYGIGFGPFIITNKHLFRRNNGTLVVQSLHGVFKVKDTTTLQQHLVDGRDMIIIRMPKDFPPFPQKLKFREPQREERICLVTTNFQTKSMSSMVSDTSCTFPSGDGIFWKHWIQTKDGQCGSPLVSTRDGFIVGIHSASNFTNTNNYFTSVPKNFMELLTNQEAQQWVSGWRLNADSVLWGGHKVFMVKPEEPFQPVKEATQV [L235V] | 0.0754 | 0.0543 | 0.062 | 0.0593 | 0.108 | 0.0616 | 0.0489 | 0.0666 | 0.0689 | – |
| MGESLFKGPRDYNPISSSICHLTNESDGHTTSLYFIGFGPFIITNKHLFRRNNGTLVVQSLHGVFKVKDTTTLQQHLVDGRDMIIIRMPKDFPPFPQKLKFREPQREERICLVTTNFQTKSMSSMVSDTSCTFPSGDGIFWKHWIQTKDGQCGSPLVSTRDGFIVGIHSASNFTNTNNYFTSVPKNFMELLTNQEAQQWVSGWRLNADSVLWGGHKVFMVKPEEPFQPVKEATQL [G35F] | 0.0459 | – | – | – | 0.0559 | – | – | – | – | 0.0157 |
| MGESLEKGPRDYNPISSSICHLTNESDGHTTSLYGIGFGPFIITNKHLFRRNNGTLVVQSLHGVFKVKDTTTLQQHLVDGRDMIIIRMPKDFPPFPQKLKFREPQREERICLVTTNFQTKSMSSMVSDTSCTFPSGDGIFWKHWIQTKDGQCGSPLVSTRDGFIVGIHSASNFTNTNNYFTSVPKNFMELLTNQEAQQWVSGWRLNADSVLWGGHKVFMVKPEEPFQPVKEATQL [F6E] | 0.0666 | 0.0434 | – | – | – | – | 0.0552 | 0.0633 | 0.0814 | – |
| MGESLFKGPRDYNPISSSICHLTNESDGHTTSLYGIGFGPFIITNKHLFRRNNGTLVVQSLHGVFKVKDTTTLQQHLVDGRDMIIIRMKKDFPPFPQKLKFREPQREERICLVTTNFQTKSMSSMVSDTSCTFPSGDGIFWKHWIQTKDGQCGSPLVSTRDGFIVGIHSASNFTNTNNYFTSVPKNFMELLTNQEAQQWVSGWRLNADSVLWGGHKVFMVKPEEPFQPVKEATQL [P89K] | – | 0.0564 | 0.0483 | – | – | – | – | 0.0438 | 0.0555 | – |
| MGESLFKGPRDYNPISSSICHLTNESDGHTTSLYGIGFGPFIITNKHLFRRNNGTLVVQSLHGVFKVKDTTTLQQHLVDGRDMIIIRMPKDFPPFPQKLKFREPQREERICLVTTNFQTKSMSSMVSDTSCTFPSGDGIFWKHWIQTKDGQCGSPLVSTRDGFIVGIHSASNFTNTNNYFTSVPKNFMELLTNQEAQQWVMGWRLNADSVLWGGHKVFMVKPEEPFQPVKEATQL [S201M] | 0.0655 | 0.0601 | 0.0544 | – | 0.065 | – | 0.0648 | – | 0.0777 | 0.0681 |
| MGESLFKGPRDYNPISSSICHLTNESDGHTTSLYGIGFGPFIITNKHLFRRNNGTLVVQSLHGVFKVKDTTTLQQHLVDGRDMIIIRMPKDFPPFPQKLKFREPQREERICLVTTNFQTKSMSSMVSDTSCTFPSGDGIFWKHWIQTKDGQCGSPLKSTRDGFIVGIHSASNFTNTNNYFTSVPKNFMELLTNQEAQQWVSGWRLNADSVLWGGHKVFMVKPEEPFQPVKEATQL [V157K] | 0.059 | – | – | – | – | – | 0.0527 | – | 0.057 | – |
| MGESLFKGPRDYNPISSSICHLTNESDGHTTSLYGIGFGPFIITNKHLFRRNNGTLVVQSLHGVFKVKDTTTLQQHLVDGRDMIEIRMPKDFPPFPQKLKFREPQREERICLVTTNFQTKSMSSMVSDTSCTFPSGDGIFWKHWIQTKDGQCGSPLVSTRDGFIVGIHSASNFTNTNNYFTSVPKNFMELLTNQEAQQWVSGWRLNADSVLWGGHKVFMVKPEEPFQPVKEATQL [I85E] | 0.0327 | 0.0467 | – | – | 0.0472 | – | 0.0534 | – | 0.0299 | 0.0656 |
| MGESLFKGPRDYNPISSSICHLTNESDGHTTSLYGIGFGPFIITNKHLFRRNNGTLVVQSLHGVFKVKDTTTLQQHLVDGRDMIIIRMPKDFPPFPQKLKFREPQREERICLVTTNFQTKSMSSMVSDTSCTFPSGDGIFWKHWIQTKDGQCGSPLVSTRDGFIVGIHSDSNFTNTNNYFTSVPKNFMELLTNQEAQQWVSGWRLNADSVLWGGHKVFMVKPEEPFQPVKEATQL [A170D] | 0.0548 | – | – | – | – | – | 0.0551 | 0.0707 | – | 0.0501 |
| MGESLFKGPRDYNPISSSICHLTNESDGHTTSLYGIGFGPFIITNKHLFRRNNGTLVVQSLHGVFKVKDTTTLQQHLVDGRDMIIIRMPKDFPPFPQKLKFREPQREERICLVTTNFQTKSMSSMVSDTSCTFPSGDGIFWKHWIQTKWGQCGSPLVSTRDGFIVGIHSASNFTNTNNYFTSVPKNFMELLTNQEAQQWVSGWRLNADSVLWGGHKVFMVKPEEPFQPVKEATQL [D149W] | – | 0.059 | 0.0503 | 0.0673 | 0.0618 | – | 0.0608 | – | 0.0584 | 0.0285 |
| MGESLFKGDRDYNPISSSICHLTNESDGHTTSLYGIGFGPFIITNKHLFRRNNGTLVVQSLHGVFKVKDTTTLQQHLVDGRDMIIIRMPKDFPPFPQKLKFREPQREERICLVTTNFQTKSMSSMVSDTSCTFPSGDGIFWKHWIQTKDGQCGSPLVSTRDGFIVGIHSASNFTNTNNYFTSVPKNFMELLTNQEAQQWVSGWRLNADSVLWGGHKVFMVKPEEPFQPVKEATQL [P9D] | 0.0664 | – | 0.0719 | 0.0658 | – | – | 0.0659 | 0.0621 | 0.0819 | – |

Same assay, conditions: temperature: 34 °C; time window: 0-4 h after rhamnose induction

| Variant | area with substrate ENNYFQS | area with substrate ENWYFQS | area with substrate ENYYFQS | area with substrate ENIYFQS | area with substrate ENPYFQS | area with substrate ENRYFQS | area with substrate ENSYFQS | area with substrate ENMYFQS |
| --- | --- | --- | --- | --- | --- | --- | --- | --- |
| MGESLFKGPRDYNPISSSICHLTNESDGHTTSLYFIGFGPFIITNKHLFRRNNGTLVVQSLHGVFKVKDTTTLQQHLVDGRDMIIIRMPKDFPPFPQKLKFREPQREERICLVTTNFQTKSMSSMVSDTSCTFPSGDGIFWKHWIQTKDGQCGSPLVSTRDGFIVGIHSASNFTNTNNYFTSVPKNFMELLTNQEAQQWVSGWRLNADSVLWGGHKVFMVKPEEPFQPVKEATQL [G35F] | 0.0505 | 0.0343 | 0.0398 | – | – | – | – | – |
| MGESLEKGPRDYNPISSSICHLTNESDGHTTSLYGIGFGPFIITNKHLFRRNNGTLVVQSLHGVFKVKDTTTLQQHLVDGRDMIIIRMPKDFPPFPQKLKFREPQREERICLVTTNFQTKSMSSMVSDTSCTFPSGDGIFWKHWIQTKDGQCGSPLVSTRDGFIVGIHSASNFTNTNNYFTSVPKNFMELLTNQEAQQWVSGWRLNADSVLWGGHKVFMVKPEEPFQPVKEATQL [F6E] | – | – | – | 0.0694 | 0.0488 | 0.0596 | 0.0658 | – |
| MGESLFKGPRDYNPISSSICHLTNESDGHTTSLYGIGFGPFIITNKHLFRRNNGTLVVQSLHGVFKVKDTTTLQQHLVDGRDMIIIRMKKDFPPFPQKLKFREPQREERICLVTTNFQTKSMSSMVSDTSCTFPSGDGIFWKHWIQTKDGQCGSPLVSTRDGFIVGIHSASNFTNTNNYFTSVPKNFMELLTNQEAQQWVSGWRLNADSVLWGGHKVFMVKPEEPFQPVKEATQL [P89K] | 0.0501 | – | – | – | 0.0572 | 0.0592 | – | 0.0971 |
| MGESLFKGPRDYNPISSSICHLTNESDGHTTSLYGIGFGPFIITNKHLFRRNNGTLVVQSLHGVFKVKDTTTLQQHLVDGRDMIIIRMPKDFPPFPQKLKFREPQREERICLVTTNFQTKSMSSMVSDTSCTFPSGDGIFWKHWIQTKDGQCGSPLVSTRDGFIVGIHSASNFTNTNNYFTSVPKNFMELLTNQEAQQWVMGWRLNADSVLWGGHKVFMVKPEEPFQPVKEATQL [S201M] | 0.0651 | 0.0565 | 0.0678 | – | 0.0594 | 0.0375 | 0.0675 | – |
| MGESLFKGPRDYNPISSSICHLTNESDGHTTSLYGIGFGPFIITNKHLFRRNNGTLVVQSLHGVFKVKDTTTLQQHLVDGRDMIIIRMPKDFPPFPQKLKFREPQREERICLVTTNFQTKSMSSMVSDTSCTFPSGDGIFWKHWIQTKDGQCGSPLKSTRDGFIVGIHSASNFTNTNNYFTSVPKNFMELLTNQEAQQWVSGWRLNADSVLWGGHKVFMVKPEEPFQPVKEATQL [V157K] | 0.0575 | 0.0543 | – | – | – | – | 0.0485 | – |
| MGESLFKGPRDYNPISSSICHLTNESDGHTTSLYGIGFGPFIITNKHLFRRNNGTLVVQSLHGVFKVKDTTTLQQHLVDGRDMIEIRMPKDFPPFPQKLKFREPQREERICLVTTNFQTKSMSSMVSDTSCTFPSGDGIFWKHWIQTKDGQCGSPLVSTRDGFIVGIHSASNFTNTNNYFTSVPKNFMELLTNQEAQQWVSGWRLNADSVLWGGHKVFMVKPEEPFQPVKEATQL [I85E] | 0.0275 | – | – | – | – | – | – | – |
| MGESLFKGPRDYNPISSSICHLTNESDGHTTSLYGIGFGPFIITNKHLFRRNNGTLVVQSLHGVFKVKDTTTLQQHLVDGRDMIIIRMPKDFPPFPQKLKFREPQREERICLVTTNFQTKSMSSMVSDTSCTFPSGDGIFWKHWIQTKDGQCGSPLVSTRDGFIVGIHSDSNFTNTNNYFTSVPKNFMELLTNQEAQQWVSGWRLNADSVLWGGHKVFMVKPEEPFQPVKEATQL [A170D] | 0.0505 | – | – | – | – | – | 0.0669 | – |
| MGESLFKGPRDYNPISSSICHLTNESDGHTTSLYGIGFGPFIITNKHLFRRNNGTLVVQSLHGVFKVKDTTTLQQHLVDGRDMIIIRMPKDFPPFPQKLKFREPQREERICLVTTNFQTKSMSSMVSDTSCTFPSGDGIFWKHWIQTKWGQCGSPLVSTRDGFIVGIHSASNFTNTNNYFTSVPKNFMELLTNQEAQQWVSGWRLNADSVLWGGHKVFMVKPEEPFQPVKEATQL [D149W] | 0.0619 | 0.0345 | – | 0.0603 | 0.0557 | 0.0558 | 0.0632 | 0.0587 |
| MGESLFKGDRDYNPISSSICHLTNESDGHTTSLYGIGFGPFIITNKHLFRRNNGTLVVQSLHGVFKVKDTTTLQQHLVDGRDMIIIRMPKDFPPFPQKLKFREPQREERICLVTTNFQTKSMSSMVSDTSCTFPSGDGIFWKHWIQTKDGQCGSPLVSTRDGFIVGIHSASNFTNTNNYFTSVPKNFMELLTNQEAQQWVSGWRLNADSVLWGGHKVFMVKPEEPFQPVKEATQL [P9D] | – | – | – | – | – | 0.0783 | – | – |
